Results from PubChem BioAssay AID588855 (National Center for Advancing Translational Sciences (NCATS), 2011).
Screen size: about 410,000 compounds; about 5,000 (1.2%) were called active. The shares of active, inactive and inconclusive entries below differ from those in the screen. Calls come from the whole dose curve; as a rule, active = well fitted inhibition curve with a large enough effect; inconclusive = small, poorly fitted or top-dose-only effect; inactive = no such curve, though single readings can be large or run the other way. Where the call is inconclusive, the potency comes from a doubtful curve fit.
Potency is the fitted concentration of half-maximal effect; tags give direction and shape of the fitted curve.

Assay: qHTS for Inhibitors of TGF-b; note: nearly all actives have a fitted effect of over 65% in size
Conditions: HepG2 CAGA-GFP TGF-b/SMAD3 reporter, GFP fluorescence, 18 h, TGF-beta stimulated, 500 pg/mL final; series mostly up to 46.1 µM
Procedure, shortened: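 HEPG2 CAGA-GFP, 1000 cells/well; 2 h settle, 37 C; cpd via pin tool; TGF-b 500 pg/mL final; 18 h, 37 C; GFP imaging ex488/em500-530; %Activity normalised to -TGF-b and +DMSO controls; CRC fit, curve class.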
In the case of `Cc1ccc(NC(=O)CSc2nc3ccccc3c(=O)n2CCCN2CCCCC2)cc1C`, the Potency is reported as inconclusive: 35.5 µM [inhibitor, single point].
For `CCc1ccc([C@H]2[C@@H]3C(=O)C[C@@H]4C(=O)NC(=O)[C@@H]4[C@@H]3CN2S(=O)(=O)c2ccc(C)cc2)cc1`, the Potency was “inactive”.
In the case of `Clc1ccc(/C(Cc2nc3ccccc3[nH]2)=N\Nc2ccccc2)cc1`, the Potency is reported as inconclusive: 31.6 µM [inhibitor, single point].
In the case of `COc1cc(Cl)c(C)cc1NC(=O)CSc1nnc(-c2ccco2)n1CC(C)C`, the Potency is reported as inconclusive: 1.58 µM [inhibitor, partial curve, poor fit].
In the case of `CCc1cccc(NC(=O)C2CCN(C(=O)c3cnn(-c4ccccc4)c3-n3cccc3)CC2)c1`, the Potency is reported as inconclusive: 8.91 µM [inhibitor, partial curve, poor fit].
With `COc1ccc(S(=O)(=O)NCc2ccco2)cc1C(=O)N1CCCCC1` the Potency was inconclusive: 1.58 µM [inhibitor, partial curve, poor fit].
In the case of `CCOC(=O)N1CCC(NC(=O)CN2C(=O)COc3ccc(C(C)(C)C)cc32)CC1`, the Potency is reported as inconclusive: 17.8 µM [inhibitor, single point].
In the case of `Nc1nc(Nc2ccccc2F)sc1C(=O)c1ccc(Cl)cc1`, the Potency is reported as inconclusive: 35.5 µM [inhibitor, single point].
For `COc1cc2sc(-c3ccc(S(C)(=O)=O)cc3)c(C(=O)NCc3ccc(C)o3)c2cc1OC`, the Potency was “inactive”.
For `CCOC(=O)c1noc2ncn(CC(=O)Nc3ccc(C)c(F)c3)c(=O)c12`, the Potency was “inactive”.
For `COc1ccc(-n2nc3c(c2NC(=O)c2c(-c4ccccc4Cl)noc2C)CS(=O)(=O)C3)cc1`, the Potency was “inactive”.
For `Cc1cccc(NC(=O)CCS(=O)(=O)c2ccc3c(c2)n(C)c(=O)c(=O)n3C)c1C`, the Potency was “inactive”.
For `CCOC(=S)SCC(=O)N1CCc2cc(OC)ccc2C1C1C(=O)CCCC1=O` (stereo not drawn), the Potency was inconclusive: 35.5 µM [inhibitor, single point].
With `CCCCNC(=O)C(C)N(CCN(C)C)C(=O)CCCN1C(=O)NC(c2ccc(Cl)cc2)C(C(=O)OCc2ccccc2)=C1C` (stereo not drawn) the Potency was inconclusive: 22.4 µM [inhibitor, single point].
With `O=C(Cc1noc2ccccc12)Nc1ccc2ccccc2c1` the Potency was inconclusive: 3.55 µM [inhibitor, single point].
For `Cc1cc(SCC(=O)Nc2cccc(S(N)(=O)=O)c2)c(C)cc1Br`, the Potency was inconclusive: 35.5 µM [inhibitor, single point].
With `CN(C)c1ccc(Sc2ccc3nc(N)nc(N)c3c2)cc1` the Potency was inconclusive: 22.4 µM [inhibitor, single point].
For `O=C(CCc1nc(-c2ccccc2F)no1)Nc1ccc(Oc2ccccc2)cc1`, the Potency was inconclusive: 0.794 µM [inhibitor, full curve, poor fit].
In the case of `O=c1[nH]c(=S)[nH]c2c1C(c1ccc(F)cc1)OC(CCC(F)(F)F)C2` (stereo not drawn), the Potency is reported as inconclusive: 5.62 µM [inhibitor, partial curve, poor fit].
In the case of `Cc1ccc(C(=O)NCCN(C)C)c(C)c1`, the Potency is reported as “inactive”.
In the case of `COC(=O)COc1cccc(NC(=O)c2ccccc2)c1`, the Potency is reported as inconclusive: 10 µM [inhibitor, partial curve].
In the case of `NC(=O)c1cc([N+](=O)[O-])ccc1NCc1ccc(F)cc1`, the Potency is reported as “inactive”.
In the case of `Cc1cccc(-n2ncc(C#N)c2-n2cccc2)c1`, the Potency is reported as inconclusive: 35.5 µM [inhibitor, single point].
With `COC(=O)[C@@]1(Cc2ccc(OC)cc2)[C@H]2c3cc(C(=O)N(C)C)n(C[C@H](O)CO)c3C[C@H]2CN1C(=O)c1ccccc1` the Potency was “inactive”.
For `CCOC(=O)C1=CN(Cc2cccc(F)c2)S(=O)(=O)NC1CCc1ccccc1` (stereo not drawn), the Potency was inconclusive: 22.4 µM [inhibitor, single point].
For `Cc1ccc(Nc2nc(-c3cccs3)cs2)nc1`, the Potency was inconclusive: 35.5 µM [inhibitor, single point].
For `Cc1ccc(S(=O)(=O)N(C)C[C@@H]2Oc3ncc(C#CCC(C)C)cc3C(=O)N([C@H](C)CO)C[C@H]2C)cc1`, the Potency was inconclusive: 35.5 µM [inhibitor, single point].
For `COc1cc(CCN(C(=O)c2cccc(S(C)(=O)=O)c2)C(CCc2ccccc2)c2nc3ccccc3[nH]2)cc(OC)c1` (stereo not drawn), the Potency was inconclusive: 35.5 µM [inhibitor, single point].
With `Cc1noc(C)c1S(=O)(=O)N1CCC(C(=O)N2CCN(c3ccccc3)CC2)CC1` the Potency was “inactive”.
For `COc1ccc(/C=N/Nc2cc(C)nc3ccccc23)cc1`, the Potency was inconclusive: 35.5 µM [inhibitor, single point].
For `Cc1ccc(/C=C2\CC(C)CC3=C2NC(=S)NC3c2ccc(C)cc2)cc1` (stereo not drawn), the Potency was “inactive”.
With `COc1cc([N+](=O)[O-])ccc1NC(=O)CN1CCN(C(=O)c2ccco2)CC1` the Potency was inconclusive: 11.2 µM [inhibitor, partial curve, poor fit].
For `CN1CCN2c3ccccc3CC3(C(=O)OC(C)(C)OC3=O)C2C1` (stereo not drawn), the Potency was “inactive”.
In the case of `Cc1cccc(OCC(O)CN2CCN(S(=O)(=O)c3ccc(C)cc3C)CC2)c1` (stereo not drawn), the Potency is reported as inconclusive: 35.5 µM [inhibitor, single point].
With `Cc1cc(F)ccc1S(=O)(=O)N1CCCOC1CNC(=O)C(=O)NCc1ccc2c(c1)OCO2` (stereo not drawn) the Potency was inconclusive: 5.62 µM [inhibitor, single point].
In the case of `COc1cccc(N2CCN(S(=O)(=O)c3ccc4[nH]c5c(c4c3)CCCC5)CC2)c1`, the Potency is reported as inconclusive: 35.5 µM [inhibitor, single point].
For `Cc1ccc(C(=O)C(NC(=O)c2ccco2)N2CCOCC2)cc1` (stereo not drawn), the Potency was inconclusive: 2.24 µM [inhibitor, partial curve].
For `Cc1ccc(OCC(O)CN2CCC(Cc3ccccc3)CC2)c(C)c1` (stereo not drawn), the Potency was inconclusive: 25.1 µM [inhibitor, single point].
With `O=C(Nc1ccccc1Br)C1CCCN(S(=O)(=O)c2cccc3nsnc23)C1` (stereo not drawn) the Potency was inconclusive: 14.1 µM [inhibitor, single point].
In the case of `O=C(N[C@H](Cc1ccc(Cl)cc1)C(=O)O)OCC1c2ccccc2-c2ccccc21`, the Potency is reported as inconclusive: 11.2 µM [inhibitor, partial curve].
For `CCOC(=O)c1cccc(Nc2c3c(nc4ccccc24)CCC3)c1`, the Potency was inconclusive: 35.5 µM [inhibitor, single point].
In the case of `Cc1cccc(NC(=O)c2c(NC(=O)C(F)(F)F)sc3c2CCCCC3)c1`, the Potency is reported as active: 1.58 µM.
With `O=C(CNC(=O)COc1ccccc1)NCc1ccccc1F` the Potency was inconclusive: 4.47 µM [inhibitor, full curve, poor fit].
For `O=C1CC(c2ccccc2)Cc2[nH]c(=O)c(C(=O)Nc3cccc(F)c3)cc21` (stereo not drawn), the Potency was “inactive”.
In the case of `CC(C)c1ccc(NC(=O)Nc2nc(C(N)C(C)C)cs2)cc1` (stereo not drawn), the Potency is reported as inconclusive: 35.5 µM [inhibitor, single point].
For `Cc1cccc(N(C)C(=O)c2cc(S(=O)(=O)N3CCCC3)cn2C)c1`, the Potency was inconclusive: 0.112 µM [inhibitor, full curve, poor fit].
In the case of `CCc1ccc(CNCc2c(C(=O)O)n(Cc3cccc(F)c3)c3cc(OC)ccc23)cc1`, the Potency is reported as inconclusive: 31.6 µM [inhibitor, single point].
For `CCCN(Cc1ccccc1)C(=S)NC(=O)c1ccccc1[N+](=O)[O-]`, the Potency was inconclusive: 2.24 µM [inhibitor, partial curve, poor fit].
For `CCOC(=O)N(C)c1c(CC)nc2c(OCc3ccccc3OC)cccn12`, the Potency was inconclusive: 14.1 µM [inhibitor, single point].
With `CN(C)c1ccc(C(=O)/C=C/c2cccnc2)cc1` the Potency was inconclusive: 25.1 µM [inhibitor, single point].
With `CN(C)c1ccc(/C=C2\C=Nc3ccccc32)cc1` the Potency was inconclusive: 35.5 µM [inhibitor, partial curve, poor fit].
In the case of `O=C(Nc1ccc(Cl)c(Cl)c1)Nc1nc(-c2ccccc2)cs1`, the Potency is reported as inconclusive: 5.01 µM [inhibitor, full curve, poor fit].
For `COc1ccc(-n2c(C)cc(C(=O)COc3ccc(C)nc3[N+](=O)[O-])c2C)cc1`, the Potency was inconclusive: 15.8 µM [inhibitor, single point].
In the case of `COCC1CCN(C(=O)c2cc(COc3ccccc3SC)on2)C1` (stereo not drawn), the Potency is reported as “inactive”.
For `C/C=C\C=C\C(=O)N1CC2(CC(c3cccc(NC(=O)CC(c4ccccc4)c4ccccc4)c3)=NO2)C[C@H]1C(N)=O` (stereo partly drawn), the Potency was inconclusive: 0.1 µM [inhibitor, full curve, poor fit].
With `O=S(=O)(CC=CCS(=O)(=O)c1ccccc1)c1ccccc1` the Potency was “inactive”.
In the case of `O=C1OCCN1C(=O)[C@H]1[C@H](c2ccc([N+](=O)[O-])cc2)C(c2ccccc2)=NN1c1ccc(Br)cc1`, the Potency is reported as inconclusive: 12.6 µM [inhibitor, partial curve].
In the case of `O=C(N/N=C/c1ccc([N+](=O)[O-])o1)c1ccncc1`, the Potency is reported as inconclusive: 10 µM [inhibitor, partial curve, poor fit].
In the case of `CCc1ccc2c(c1)NC(c1cccs1)=NC(c1ccc(F)cc1)=N2`, the Potency is reported as inconclusive: 35.5 µM [inhibitor, single point].
For `CCN(c1ccccc1)S(=O)(=O)c1cccc(C(=O)NCC(c2ccc(OC)cc2)N2CCCCC2)c1` (stereo not drawn), the Potency was inconclusive: 35.5 µM [inhibitor, single point].
With `O=C(c1ccc(Cn2cc(Br)cn2)cc1)N1CCN(c2ccccc2)CC1` the Potency was inconclusive: 35.5 µM [inhibitor, single point].
With `Nc1ncnc2c(C3OC(CO)C(O)C3O)c[nH]c12` (stereo not drawn) the Potency was “inactive”.
For `O=C1OCCN1C(=O)[C@H]1[C@H](c2ccc(F)cc2)C(c2ccc(F)cc2)=NN1c1ccc(Br)cc1`, the Potency was active: 11.2 µM.
